# Experimental data published in the supplement of paper PMC12217912.
# This is one part of the list. Sequences were assembled here from the parent chain. Inactive controls read about 0.05.
# B1: TEV protease; numbered along this chain (parent)
# chain: MGESLFKGPRDYNPISSSICHLTNESDGHTTSLYGIGFGPFIITNKHLFRRNNGTLVVQSLHGVFKVKDTTTLQQHLVDGRDMIIIRMPKDFPPFPQKLKFREPQREERICLVTTNFQTKSMSSMVSDTSCTFPSGDGIFWKHWIQTKDGQCGSPLVSTRDGFIVGIHSASNFTNTNNYFTSVPKNFMELLTNQEAQQWVSGWRLNADSVLWGGHKVFMVKPEEPFQPVKEATQL
# Variants of: B1
# Assay: raw area under fraction-flipped curve 0-4 h after induction (AUC4h, not background-subtracted), DNA-recorder readout of cleavage of the substrate (dimensionless); higher = more cleavage of the substrate by the protease variant
# Conditions: temperature: 34 °C; time window: 0-4 h after rhamnose induction
# Method: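 In vivo DNA recorder in E. coli TOP10(DE3) ΔrhaA at 34 °C. Each TEVp single-site mutant (parent TEVp 0) is paired with a single-site variant of the 7-mer TEVs (canonical ENLYFQ|S). The substrate sits between flexible linkers in a Bxb1-sfGFP-TEVs-SsrA fusion, so cleavage stabilises Bxb1 and speeds flipping of a recombination array, read by NGS. The value is the raw area under the fraction-flipped curve over 0-4 h after rhamnose induction (AUC4h), with ≥20 reads per time point. It is not background-subtracted; inactive controls average about 0.047.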
# 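Also: Bxb1 expression induced with 0.2% (w/v) L-rhamnose at OD600 near 0.5, cultures sampled hourly, flipped fraction per protease–substrate barcode pair counted by paired-end Illumina sequencing.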
Variant,area with substrate ENLYFAS,area with substrate ENLYFCS,area with substrate ENLYFDS,area with substrate ENLYFES,area with substrate ENLYFHS,area with substrate ENLYFNS,area with substrate ENLYFWS,area with substrate ENLYFGS,area with substrate ENLYFIS,area with substrate ENLYFLS,area with substrate ENLYFMS,area with substrate ENLYFPS,area with substrate ENLYFRS,area with substrate ENLYFTS,area with substrate ENLYFVS,area with substrate ENLYFYS,area with substrate ENLYFFS,area with substrate ENLYFKS,area with substrate ENLYFSS
Q97S,0.0651,0.0503,0.0735,0.0656,0.0661,0.0365,0.0905,,,,,,,,,,,,
R102W,0.0586,0.0556,,0.0447,0.0421,0.0576,0.0451,0.0526,0.0517,0.0369,0.054,0.0575,0.0506,0.0562,0.0458,0.0414,,,
E103W,0.0576,0.0524,,0.0462,0.0482,0.054,0.0533,0.0582,0.0494,0.0399,0.0639,0.0564,0.0545,0.0522,0.0496,0.0551,0.0666,0.0512,0.0713
Q105A,0.0562,0.0553,0.0468,0.0605,0.0636,0.06,0.0687,0.0847,0.0569,0.0647,0.0644,0.0597,0.0569,0.0647,0.0453,0.0496,0.0562,0.0627,
Q105G,0.0525,0.0597,,0.063,0.0588,0.0606,0.0532,,0.0608,,0.0589,0.0615,,0.054,,0.0605,0.0615,0.0592,0.0558
R106W,0.0615,0.0529,0.056,0.0746,0.0577,0.0591,0.0641,0.053,0.0635,0.0541,0.0769,0.0599,0.0546,0.0638,0.0632,0.0568,0.0751,0.0635,0.0615
E107K,0.0614,0.0572,,0.0735,0.0584,0.0739,0.0503,,0.0562,,0.0658,0.0663,0.0551,0.062,0.0755,0.0792,0.0586,0.0662,0.0606
E107M,0.0537,0.052,0.0434,0.0623,,,0.052,,,,,0.062,0.0576,0.0512,0.0637,0.0622,0.0594,,
E107N,0.063,,,0.0657,,0.0666,0.0601,0.0591,0.0628,,0.0797,0.0545,0.0646,,0.0458,,0.081,0.059,
E107S,0.0539,0.058,0.0551,0.0674,0.0736,0.0575,,0.0506,0.0635,0.061,0.0691,0.0569,0.0524,0.057,,0.0419,0.0676,0.0614,
E108V,0.0677,0.0512,,0.0548,0.0472,0.0548,0.0548,0.0581,0.0493,0.0595,0.0593,0.0525,0.0607,0.0443,,0.0592,0.0666,0.0634,0.0583
I110M,0.0772,0.0683,0.0556,0.0582,,0.0474,0.0529,,0.072,,0.0603,0.0632,,0.0502,,0.103,0.0768,0.0583,
I110Q,0.0595,,0.0428,0.0586,,0.0444,0.0455,0.0533,0.0618,0.0579,0.0632,0.0506,,0.0426,,0.0517,0.067,0.0557,
C111I,0.0628,0.0575,0.0493,0.0568,0.0622,0.0524,0.0697,0.0601,0.0545,,0.067,0.0658,0.0701,0.0568,0.0701,,0.0609,0.0454,
C111N,0.0638,0.0503,0.0503,,0.0607,,0.0581,,0.054,,0.0652,0.0496,0.0506,,0.0351,0.0576,,,0.0653
V113A,0.0581,0.0656,,,0.0598,0.0635,0.0616,0.0859,0.0532,0.0635,0.0801,0.0608,0.0625,0.0696,0.0665,0.0215,0.079,0.0583,0.059
V113T,0.0578,,,0.0781,,0.0634,0.0499,0.0616,0.0451,,0.0597,0.058,0.0479,,0.041,,0.0639,0.0594,0.0643
T114P,0.0558,,0.0543,,,,0.0539,,0.0468,,0.0571,0.0587,,0.0555,,,0.0669,,0.0505
T114Q,0.0594,0.0557,0.0447,0.0725,,0.0737,0.0552,0.0589,0.0596,0.0614,0.0702,,0.0684,0.0513,,,0.0706,0.05,0.055
T115W,0.0558,,0.0594,,,0.0805,,,0.0671,0.0518,0.0554,0.0756,,0.0431,0.0532,,0.0694,,
N116E,0.0501,,0.0605,0.061,,,0.0529,0.0571,0.0589,0.0605,0.0711,0.0541,0.042,0.0495,0.0621,0.0766,0.0698,,0.0598
N116K,0.0526,,,0.0662,,,,,0.0771,,0.0441,0.0594,0.0601,0.078,0.04,,0.0913,,0.0636
F117G,0.0456,,0.0795,0.0538,,0.0765,0.0622,,0.0572,,0.0643,0.0889,0.0532,0.0638,,,,0.056,
Q118S,0.0457,,,,0.0599,0.0904,,0.0418,0.0464,,,0.0408,,0.0635,,0.0095,0.0686,0.0828,
S121D,0.0641,,,0.0652,0.0504,0.0647,0.0592,,0.0582,0.0671,0.0693,0.0665,0.055,0.0553,,0.0567,0.0639,0.0643,0.0305
S121L,0.0638,,0.0706,0.0653,0.0459,0.0592,0.0402,,0.0562,0.0711,0.0721,0.0602,0.0521,,0.0527,0.0713,0.0704,0.07,0.0638
